# Test results: the BET-seq Pho4 binding data (Le et al. 2018)
# The other results are listed elsewhere or left out. These are noisy estimates, calculated here from bound and input reads.
# Target: T1, Pho4 (S. cerevisiae) (UniProt P07270)
# T1 sequence: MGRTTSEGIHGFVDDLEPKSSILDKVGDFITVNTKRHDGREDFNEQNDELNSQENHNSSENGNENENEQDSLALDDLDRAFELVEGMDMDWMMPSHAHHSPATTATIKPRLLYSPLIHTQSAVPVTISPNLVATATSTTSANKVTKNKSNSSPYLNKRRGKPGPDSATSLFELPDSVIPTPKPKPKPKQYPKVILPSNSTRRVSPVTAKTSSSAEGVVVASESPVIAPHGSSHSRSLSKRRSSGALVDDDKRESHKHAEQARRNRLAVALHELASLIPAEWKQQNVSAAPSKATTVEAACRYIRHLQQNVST
# Test: relative binding free energy (BET-seq); higher = weaker binding
# Conditions: reference: library average
row,Sequence,relative binding free energy
1,TTTTCCACGTGGATGG,0.17 kcal/mol
2,GTTAACACGTGACGTG,0.14 kcal/mol
3,AGCGACACGTGGGGGC,-0.1 kcal/mol
4,TGCGACACGTGATGTA,0.2 kcal/mol
5,TGTTGCACGTGGATCT,0.01 kcal/mol
6,AGTTACACGTGTTTGA,0.18 kcal/mol
7,TTTCACACGTGGTTAA,0.12 kcal/mol
8,GGTGCCACGTGGGCTG,-0.24 kcal/mol
9,AAGTTCACGTGGAAGT,0.31 kcal/mol
10,ATGAGCACGTGCGTGT,-0.19 kcal/mol
11,TGGAGCACGTGGGTGA,-0.14 kcal/mol
12,ATCGTCACGTGGTGGC,0.02 kcal/mol
13,GTAATCACGTGGTTGT,0.22 kcal/mol
14,TCGGGCACGTGGCGGT,-0.27 kcal/mol
15,GGTGTCACGTGGCGCG,0.1 kcal/mol
16,TTTGGCACGTGGGCAA,-0.18 kcal/mol
17,CGGGACACGTGGACGT,0.08 kcal/mol
18,CTAGTCACGTGAAGGG,0.27 kcal/mol
19,GATCGCACGTGTATTG,0.15 kcal/mol
20,CGGAACACGTGTGGTG,0.08 kcal/mol
21,TAGGTCACGTGTGGAT,0.21 kcal/mol
22,TTTGTCACGTGGCAGG,-0.09 kcal/mol
23,GAAGACACGTGGGGTG,-0.07 kcal/mol
24,AGCGTCACGTGAAAGG,0.25 kcal/mol
25,CGTATCACGTGAGGTT,0.24 kcal/mol

row,Sequence,relative binding free energy
1,GTTGGCACGTGAGGAG,0.11 kcal/mol
2,TATTCCACGTGTCTGG,0.27 kcal/mol
3,GGATACACGTGTAGAG,0.07 kcal/mol
4,GGGGTCACGTGTGCTG,0.09 kcal/mol
5,TATTGCACGTGGTGGT,-0.13 kcal/mol
6,GAGTGCACGTGGGGCC,-0.22 kcal/mol
7,GCTTGCACGTGCATGG,0 kcal/mol
8,GGGCGCACGTGTGATA,0 kcal/mol
9,TTGCTCACGTGGGATA,0.15 kcal/mol
10,TGAGTCACGTGCTTGG,0.11 kcal/mol
11,GAGGGCACGTGACGTG,0.06 kcal/mol
12,TATGGCACGTGCGTAA,-0.08 kcal/mol
13,GTTTGCACGTGAGGAA,0.41 kcal/mol
14,TTTTCCACGTGGGGGA,-0.06 kcal/mol
15,GTGTTCACGTGTAATA,0.42 kcal/mol
16,TGCTTCACGTGCTAGT,0.26 kcal/mol
17,CGGTTCACGTGTGAAG,0.37 kcal/mol
18,ACAATCACGTGGTGGG,0.02 kcal/mol
19,AGGCGCACGTGGGAGC,-0.08 kcal/mol
20,TGTAACACGTGGGCGC,-0.06 kcal/mol
21,CAGGGCACGTGTGGCA,-0.1 kcal/mol
22,ACATTCACGTGGGTAG,0.14 kcal/mol
23,GGGTGCACGTGTGAGA,0.15 kcal/mol
24,TGTGTCACGTGCGGGA,0.07 kcal/mol
25,GGTTACACGTGTAGCG,0.21 kcal/mol

row,Sequence,relative binding free energy
1,GTGAGCACGTGATAGT,-0.05 kcal/mol
2,GACTGCACGTGGGGAT,0 kcal/mol
3,GGGTGCACGTGGGTCA,-0.23 kcal/mol
4,TATTGCACGTGGAGGG,0.08 kcal/mol
5,CGTTGCACGTGGGATG,-0.22 kcal/mol
6,GGTAGCACGTGGAGGG,-0.09 kcal/mol
7,GGTGACACGTGTATGG,0.09 kcal/mol
8,TGTCACACGTGATAGT,0.09 kcal/mol
9,TGCGACACGTGTGGAG,0.11 kcal/mol
10,TTAGTCACGTGGTGTC,-0.05 kcal/mol
11,TGGGGCACGTGGACAG,-0.18 kcal/mol
12,TAAGTCACGTGAATTA,0.44 kcal/mol
13,AAAGGCACGTGAGAGT,0.03 kcal/mol
14,GAAGGCACGTGATTGT,0.14 kcal/mol
15,TGACACACGTGGAGGT,-0.01 kcal/mol
16,AACGGCACGTGGTTTG,0 kcal/mol
17,TGGCACACGTGCTGTG,-0.06 kcal/mol
18,TGAGACACGTGATTGT,0.07 kcal/mol
19,GTGAACACGTGATGTG,0.19 kcal/mol
20,GGAAACACGTGGGTAG,-0.06 kcal/mol
21,TTATTCACGTGCCGGT,0.14 kcal/mol
22,TGGGTCACGTGGAGGT,0.14 kcal/mol
23,GCTGTCACGTGTGTGC,0.03 kcal/mol
24,GAGGTCACGTGATTTG,0.19 kcal/mol
25,TGGTGCACGTGGAATG,-0.03 kcal/mol

row,Sequence,relative binding free energy
1,GCTTGCACGTGGAGGG,0 kcal/mol
2,GTAGTCACGTGGGTTC,-0.01 kcal/mol
3,TTGCGCACGTGAGGGG,0.21 kcal/mol
4,TGGGTCACGTGACGGT,0.15 kcal/mol
5,TGGGACACGTGGCAAG,0.11 kcal/mol
6,TAGTACACGTGTTTAA,0.05 kcal/mol
7,TGCGTCACGTGTGCTA,0.09 kcal/mol
8,TATATCACGTGTGGTA,0.07 kcal/mol
9,ACGGGCACGTGGCTGT,-0.14 kcal/mol
10,ATGTTCACGTGGGAAA,0.28 kcal/mol
11,GATGGCACGTGCGTGA,-0.15 kcal/mol
12,AAGATCACGTGGAAGT,0.17 kcal/mol
13,CACTTCACGTGTGGTT,0.24 kcal/mol
14,TTAGCCACGTGGTAGT,-0.01 kcal/mol
15,TGTAGCACGTGAGGTA,0.18 kcal/mol
16,ATTTACACGTGGTGAG,0.07 kcal/mol
17,GAGCGCACGTGGGTAT,-0.11 kcal/mol
18,TTTGGCACGTGGATTC,-0.03 kcal/mol
19,CTCGTCACGTGAAGGG,0.13 kcal/mol
20,GGTGGCACGTGGTCGT,-0.12 kcal/mol
21,CGTTGCACGTGTTTAT,0.15 kcal/mol
22,TCAAACACGTGATGGT,0.29 kcal/mol
23,TGTGACACGTGTTATC,0.07 kcal/mol
24,CTGTACACGTGCGTGT,0.05 kcal/mol
25,ATGGTCACGTGGCACG,0 kcal/mol

row,Sequence,relative binding free energy
1,TGAACCACGTGGGGGT,-0.16 kcal/mol
2,AGGTTCACGTGGTATC,0.21 kcal/mol
3,CTGGTCACGTGACGTG,0.2 kcal/mol
4,GTATGCACGTGAATTA,0.17 kcal/mol
5,ATAGACACGTGAGTGA,0.18 kcal/mol
6,AAGAGCACGTGAGGGT,0.05 kcal/mol
7,TATATCACGTGGATGT,0.1 kcal/mol
8,CTTGACACGTGGTGTA,-0.18 kcal/mol
9,AGTGGCACGTGTAGAG,-0.04 kcal/mol
10,TAGTCCACGTGAGGGG,0.22 kcal/mol
11,GCTGTCACGTGTTTGG,0.18 kcal/mol
12,GGAGGCACGTGTTCGA,-0.02 kcal/mol
13,CTCTGCACGTGGAGGG,0.07 kcal/mol
14,AGGTTCACGTGTTCGA,0.26 kcal/mol
15,CGTTGCACGTGGATGT,0.02 kcal/mol
16,CGGAGCACGTGTGGTC,-0.04 kcal/mol
17,TGGAGCACGTGCGCGG,-0.14 kcal/mol
18,AGAATCACGTGGGGCT,-0.04 kcal/mol
19,AGAAGCACGTGTGTTT,0.06 kcal/mol
20,GTGAGCACGTGGATGT,-0.07 kcal/mol
21,GGAAACACGTGGGTGT,-0.03 kcal/mol
22,GTACACACGTGGGTAG,-0.08 kcal/mol
23,TTTAACACGTGGTGTG,-0.1 kcal/mol
24,TTTTTCACGTGCAATG,0.33 kcal/mol
25,ATTAACACGTGAAGTT,0.3 kcal/mol

row,Sequence,relative binding free energy
1,AAGGGCACGTGGTATC,-0.11 kcal/mol
2,CGTTTCACGTGGTGGT,0.35 kcal/mol
3,TTTCGCACGTGTATCG,0.08 kcal/mol
4,GTATCCACGTGGTGTA,-0.09 kcal/mol
5,ATTTACACGTGGACGG,0.13 kcal/mol
6,GCGTTCACGTGTTTGG,0.32 kcal/mol
7,GAATGCACGTGGATTG,-0.08 kcal/mol
8,GTGGCCACGTGGTTGC,-0.17 kcal/mol
9,GTGGGCACGTGTTATT,-0.03 kcal/mol
10,TCGGGCACGTGTTGGC,-0.02 kcal/mol
11,CATGTCACGTGATGTA,0.19 kcal/mol
12,ATCTACACGTGTTGTT,0.06 kcal/mol
13,TGTTGCACGTGGGCTA,-0.22 kcal/mol
14,GGTAGCACGTGTAGGG,-0.05 kcal/mol
15,TGCGGCACGTGTCTTG,-0.13 kcal/mol
16,ATGTTCACGTGGCCAT,0.19 kcal/mol
17,CGAGTCACGTGTGATA,0.28 kcal/mol
18,TGGCTCACGTGGGATT,0.14 kcal/mol
19,ATGGGCACGTGTAAAG,0.04 kcal/mol
20,ATTGACACGTGTTGAT,-0.01 kcal/mol
21,TTGTTCACGTGATTTA,0.38 kcal/mol
